Test results taken from the supplement of paper PMC10300432.

Experiments:
[1] = molecular target: SARS-CoV-2 Omicron BA.1 spike pseudovirus; test: pseudovirus neutralization IC50; higher = weaker neutralization
Procedure: (§1)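 Single-round luciferase reporter pseudovirus mixed with antibody dilutions and put on HT1080-ACE2 clone 14 cells for 48 h; signal relative to no-antibody wells, four-parameter fit.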

[2] = molecular target: SARS-CoV-2 Omicron BA.4/5 spike pseudovirus; test: as above
Procedure: as §1

[3] = molecular target: SARS-CoV-2 Wuhan-Hu-1 spike pseudovirus; test: as above
Procedure: as §1

[4] = molecular target: SARS-CoV-2 Wuhan-Hu-1 spike receptor-binding domain; test: ELISA binding EC50; higher = weaker binding; ELISA of recombinant human antibody on coated antigen, from 10 µg/ml in fourfold dilutions; four-parameter fit.

B1: C5239 (protein)
chain 1: EVQLVQSGAEVKKPGESLKISCKASGYNFNSHYIGWVRQMPGKGLEWMGILYPGDSDTIYGPSFEGQVTISVDKSTTTAYLQWSRLKASDTATYYCARWTHTSGFYHFDYWGQGALVTVSS
chain 2: DIQMTQSPSSLSASVGDRVTLTCRASQSISMYLNWYQHKPGRAPKLLIYAASSLQSGVPSRFSGSGSGTDFTLTISNLQPEDFATYYCQQSYSTHLYTFGPGTKLEI
pseudovirus neutralization IC50 [1]: 0.78 µg/mL
pseudovirus neutralization IC50 [2]: > 1 µg/mL
pseudovirus neutralization IC50 [3]: > 1 µg/mL
ELISA binding EC50 [4]: 0.00573 µg/mL

B2: C5318 (protein)
chain 1: QVQLQESGPGLVKPSQTLSLTCTVSGASISSGTYYWSWIRQHPGKGLEWIGYIYYSGSTYYNPSLKSRVTISVDTSKNQFSLKLRSVTAADTAVYYCASQDTAMVFDFWGQGTLVTVSS
chain 2: QSVLTQPPSVSGAPGQRVTISCTGSSSNIGAGYDVHWYQQLPGTAPKLLIYGNSNRPSGVPDRFSGSKSGTSASLAITGLQAEDEADYYCQSLDISLSGSGYVFGTGTKVTVL
pseudovirus neutralization IC50 [1]: 0.21 µg/mL
pseudovirus neutralization IC50 [2]: 0.2 µg/mL
pseudovirus neutralization IC50 [3]: 0.131 µg/mL
ELISA binding EC50 [4]: 0.0038 µg/mL

B3: C5316 (protein)
chain 1: EVQLVESGGGLVQPGGSLRLSCAASGFTFSTYDMHWVRQVKGNALEWVSGTGTSGDTYYLDSVKGRFTISRDDAKNSLYLQMNNLRAGDTAIYYCVRGNAWYGGYYYGMDVWGQGTTVAVS
chain 2: DIQMTQSPSSLSASVGDRVTITCRASQTITKYINWYQQRPGRAPKLLIYAASTLHSGVPSRFSGSGSGTDFTLTISSLQPEDFATYYCQQSYSAPPWTFGQGTKVEIK
pseudovirus neutralization IC50 [1]: > 1 µg/mL
pseudovirus neutralization IC50 [2]: > 1 µg/mL
pseudovirus neutralization IC50 [3]: 0.301 µg/mL
ELISA binding EC50 [4]: 0.00398 µg/mL

B4: C5242 (protein)
chain 1: QVQLQESGPGLVKPSETLSLTCNVSGGSISIFYWSWIRQSPGKGLEWIGYINANRRTDYNPSLKNRVTISVDTSKKQFSLQLSSVTTADTAVYYCARVFFDFPRGLGHDVFDIWGQGTKVTVSS
chain 2: EIVLTQSPATLSLSPGERATLSCRASQSVSSTFLAWYQQKPGLAPRLLIYDASSRATGIPDRFSGSGSGTDFTLTISRLEPEDFAVYFCQQYGNPPLTFGGGTKVEIK
pseudovirus neutralization IC50 [1]: 0.00281 µg/mL
pseudovirus neutralization IC50 [2]: > 1 µg/mL
pseudovirus neutralization IC50 [3]: 0.00116 µg/mL
ELISA binding EC50 [4]: 0.0042 µg/mL

B5: C5246 (protein)
chain 1: QLQLQESGPGLVKPSETLSLTCTVSGGSISRTPYYWGWIRQSPGKGLEWIGSIDYSGSTYYNPSLESRVTLSVDTSKNHFSLILRSVTAADTAVYYCARQEMGTTLENWYFDLWGRGTLVTVSS
chain 2: DIQMTQSPSSLSASVGDRVTVTCRASHAIANSLAWYQQKLGKAPKLLLHAASELESGVPSRFSGSGSGTTYTLTISSLQPEDSATYYCQQYYATPPTFGQGTKVEIK
pseudovirus neutralization IC50 [1]: > 1 µg/mL
pseudovirus neutralization IC50 [2]: > 1 µg/mL
pseudovirus neutralization IC50 [3]: 0.39 µg/mL
ELISA binding EC50 [4]: 0.0051 µg/mL

B6: C5319 (protein)
chain 1: QVQLVESGGGVVQPGRSLRLSCEASGLTFSTYGMHWVRQAPGKGLEWVAFISGDGSEKHYGDSVKGRFTISRDNSKDILYLQVNSLRAEDTAVYFCARDLYTGGPGYWGHGTLVTVSS
chain 2: QSVLTQEPSLTVSPGGTVTLTCGSSTGSVTSDHYPYWFQQKPGQPPRTLIYDTNTKHSWTPARFSGSLLGGKAALTLSGAQPEDEADYYCLLSYNGARNWVFGGGTKLTVL
pseudovirus neutralization IC50 [1]: > 1 µg/mL
pseudovirus neutralization IC50 [2]: > 1 µg/mL
pseudovirus neutralization IC50 [3]: 0.694 µg/mL
ELISA binding EC50 [4]: 0.00359 µg/mL

B7: C5240 (protein)
chain 1: QVQLQESGPGVVKPSETLSLTCFVSGVSGRSYSWNWIRQPPGKGLEWIGFIHYTGDSNYNPSLKSRVTISLDTSKNQFSLKVTSMTAADTAVYYCARGVRLAVAGTDPDYFDFWGQGALVTVSS
chain 2: SYELTQPPSVSVSPGQTARITCSGDALPNLYTFWYQQKPGQAPLLVIYKDNERPSGIPERFSGSTSGTTVTLTISGVQAEDEADYFCQSADSAGAVFGGGTKLTVL
pseudovirus neutralization IC50 [1]: > 1 µg/mL
pseudovirus neutralization IC50 [2]: > 1 µg/mL
pseudovirus neutralization IC50 [3]: 0.285 µg/mL
ELISA binding EC50 [4]: 0.00584 µg/mL

B8: C5046 (protein)
chain 1: QVQLVQSGAEVKKPGASVKLSCKTFGYIFTDHYLHWVRQAPGQGLEWMGWVSPNSGATNYTQKFQGRVTMTRDTSITTVYMELKRLSSDDTAVYYCARDHMRFMVRGVLSLWGQGTLVTVSS
chain 2: QSALTQPPSASGSPGQSVTISCTGTSIDVGDYNSVSWYQQHPGKAPQLMIYEISKRPSGVPDRFSGSKSGNTASLTVSGLQAEDEADYYCSSYVGRNNWVFGGGTKLTVL
pseudovirus neutralization IC50 [1]: > 1 µg/mL
pseudovirus neutralization IC50 [2]: > 1 µg/mL
pseudovirus neutralization IC50 [3]: 0.000712 µg/mL
ELISA binding EC50 [4]: 0.00267 µg/mL

B9: C5241 (protein)
chain 1: QVQLVQSGAEVKKPGSSVKVSCKASGGSFSSYTITWVRQAPGQGLEWMGRIIPILGIPYSAQRFVGRVTITADKSTGTAYMELSSLRSDDTAVYYCAREVGYSATSGAHWYFDLWGRGTLVTVSS
chain 2: QSVLTQPPSVSGAPGQRVTISCTGSNSNIGAGYDVHWYQQLPGTAPKLLIYANNNRPSGVPDRFSGSKSDTSASLAITGLRAEDEADYYCHSYDSSLSDSLFGGGTKLTVL
pseudovirus neutralization IC50 [1]: 0.0123 µg/mL
pseudovirus neutralization IC50 [2]: > 1 µg/mL
pseudovirus neutralization IC50 [3]: 0.0727 µg/mL
ELISA binding EC50 [4]: 0.00784 µg/mL

B10: C5245 (protein)
chain 1: QVQLVQSGAEVRKPGSSVKLSCKVTGGPFDSFSISWVRQAPGQGLEWMGRIFPILRVAHYAQNFEGRLTITAERSTNTAYMEISSLRSDDTAVFYCVRDRAGDGYNSRSFDPWGQGTLVTVSS
chain 2: QSVLTQPPSVSGAPGQRVTISCTGTNSNIGAGYAVHWYQQLPGSAPKLLIYGNNNRPSGVPDRFSASKSDTSASLAITGLQAEDEADYYCQSYDSSLGGSEVFGGGSKLTVL
pseudovirus neutralization IC50 [1]: 0.0176 µg/mL
pseudovirus neutralization IC50 [2]: > 1 µg/mL
pseudovirus neutralization IC50 [3]: 0.0628 µg/mL
ELISA binding EC50 [4]: 0.00151 µg/mL

B11: C5317 (protein)
chain 1: QLQLQESGPGLVKPSETLSLTCNVSGGFVSSGSFYWGWVRQTPARGLEWLGTVYYTGSTNYNPSLRSRLTISVDTSNDQFSLRLRSVTAADAAVYYCVRRAVTTWFDPWGQGILVTVSS
chain 2: QSALTQPISVSGSPGQSISISCTGTRNDVGGYSYVSWYQQHPGKAPKLIIFDVNNRPSGASTRFSGSKSGNTASLTISGLQAEDEADYYCSSYTSSSTVIFGGGTRLTVL
pseudovirus neutralization IC50 [1]: > 1 µg/mL
pseudovirus neutralization IC50 [2]: 0.891 µg/mL
pseudovirus neutralization IC50 [3]: > 1 µg/mL
ELISA binding EC50 [4]: 0.0334 µg/mL

B12: C5249 (protein)
chain 1: EVQLVESGGGLIQPGGSLRLSCAASGITVNANYMNWVRQAPGKGLEWISVIYSGGSTFYADSVKGRFTISRDNSKNTLYLQMNSLRADDTAVYYCARDLGPRAFDIWGQGTLVTVSS
chain 2: DIQLTQSPSFLSASVGDRVTLTCRASQGISNDLAWYQQKPGKAPKLLIYAASTLQSGVPSRFSGSGSGTEFTLTISSLQPEDFATYYCQQLNSSPPRDTFGPGTKVDIK
pseudovirus neutralization IC50 [1]: > 1 µg/mL
pseudovirus neutralization IC50 [2]: > 1 µg/mL
pseudovirus neutralization IC50 [3]: 0.00327 µg/mL
ELISA binding EC50 [4]: 0.00412 µg/mL

B13: C5243 (protein)
chain 1: EVQLVETGGGLIQPGGSLRLSCAASGFTVSSDYMSWVRQAPGKGPEWVSVIYNDDRTQYADSVKGRFTISRNNSKNTVYLQLNSLRLDDTAVYYCTRGRGIQLDWGQGTLVTVSS
chain 2: DIQMTQSPSSLSASVGDRVTITCRASQGVSNSLAWYQQKPGRAPKLLLYAASTLESGVPSRFSGSGSGTDYTLTISSLQPEDFATYYCQQYYSALTWTFGQGTKVEIK
pseudovirus neutralization IC50 [1]: > 1 µg/mL
pseudovirus neutralization IC50 [2]: > 1 µg/mL
pseudovirus neutralization IC50 [3]: 0.00346 µg/mL
ELISA binding EC50 [4]: 0.0048 µg/mL

B14: C5248 (protein)
chain 1: EVQLVESGGGLIQPGGSLRLSCAASGFTVSSNYMSWVRQAPGKGLEWVSVIYSGGSTYYADSVKGRFTISRDNSKNTLFLQMNNLTTDDTAVYYCAREAYALDVWGRGTTVTVSS
chain 2: DIQLTQSPSFLSASVGDRVTITCRASQGISNYLAWYQQKPGKAPKLLIYGASTLQSGVPSRFSGRGSGTEFTLTINSLQPEDFATYYCQLLNSHPGATFGPGTKVDIK
pseudovirus neutralization IC50 [1]: > 1 µg/mL
pseudovirus neutralization IC50 [2]: 0.957 µg/mL
pseudovirus neutralization IC50 [3]: 0.00529 µg/mL
ELISA binding EC50 [4]: 0.00423 µg/mL

B15: C5244 (protein)
chain 1: QLQLQESGPGLVKPSETLSLTCSVSGDSISKNHYSWGWIRQPPGKGLEWIGNVFYSGNTYYNPSLKSRLTVSVDTSKNHFSLRLSSVTAADTAVYHCARQNPYYSDNSGYDFSDLKFDYWGQGILVTVSS
chain 2: QSVLTQPPSVSGAPGQRVTISCTGSSSNIGAGYNVHWYQQLPGTVPKLLIFDNTNRPSGVPDRFSGSRSGTSASLAITGLQAEDEGDYYCQSYDSSLSGPNYVFGTGTKLTVL
pseudovirus neutralization IC50 [1]: 0.0231 µg/mL
pseudovirus neutralization IC50 [2]: > 1 µg/mL
pseudovirus neutralization IC50 [3]: 0.0058 µg/mL
ELISA binding EC50 [4]: 0.00593 µg/mL

Recombinant human monoclonal antibodies (heavy:light variable regions). ELISA EC50 on the named antigen, from 10 µg/ml down; IC50 against spike pseudovirus on HT1080-ACE2 cells, 48 h; lower = stronger. Calls: IC50 above 1,000 ng/ml = non-neutralizing; EC50 above 1,000 ng/ml = non-binder.
